We go through 4 compounds from PubChem BioAssay AID1194 (EPA DSSTox, 2008).

The test system of the series is Salmonella typhimurium Ames mutagenicity, literature compiled. As to the kind of experiment: DSSTox (CPDBAS) Carcinogenic Potency Database Salmonella Mutagenicity. The source says:
The Carcinogenic Potency Database (CPDB) is a unique and widely used international resource of the results of over 6500 chronic, long-term animal cancer tests on over 1500 chemical substances. The CPDB provides easy access to the bioassay literature, with qualitative and quantitative analyses of both positive and negative experiments that have been published over the past 50 years in the general literature and by the National Cancer Institute/National Toxicology Program. The CPDB standardizes the diverse literature of cancer bioassays that vary widely in protocol, histopathological examination and nomenclature, and in the published author's choices of what information to provide in their papers. Results are reported in the CPDB for tests in rats, mice, hamsters, dogs, and nonhuman primates, and are based on the most positive result among all experiments for each sex-species. The DSSTox CPDBAS (all species) file incorporates data from the CPDB Summary Tables for the full list of over 1500 chemical substances tested in at least one species.
A chemical is classified within the CPDB as mutagenic, i.e. "active", in the Salmonella assay if it was evaluated overall as either "mutagenic" or "weakly mutagenic" by Zeiger [Zeiger, E. (1997) Genotoxicity Database. In: Gold and Zeiger, Eds. Handbook of Carcinogenic Potency and Genotoxicity Databases. Boca Raton, FL: CRC Press, pp. 687-729. http://potency.berkeley.edu/CRCbook.html] or as overall "positive" by the EPA Gene-Tox Program [Kier et al. (1986) Mutat. Res. 168: 69-240].

Certain results were filed several times, with different values. This is not the full list of results. There may be further records.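 Rule for the calls: active = chemicals rated mutagenic or weakly mutagenic in the Salmonella bacterial test by one literature review, or positive overall by another; inconclusive = no clear call, values can overlap the other calls; inactive = the rest.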 The records of an entry are repeats (runs, samples, wells, individuals or studies). What stands in brackets tells the records apart. A, B and so on number the origins entry by entry.

For `C=C(C)CCl`, the outcome is “inactive; active [sample A] and active [sample B]”.
The entry for `CCCCOCCOCCOCc1cc2c(cc1CCC)OCO2` is “inactive [sample A] and inactive; active [sample B]”; for `Oc1c(Cl)c(Cl)c(Cl)c(Cl)c1Cl` it is “inactive; active [sample A] and inactive [sample B] and inactive [sample C]”.
The entry for `CC(=O)OC1CC(C)OC(C)O1` (centres undefined) is “active [sample A] and active; inactive [sample B]”.
